Two molecules from patent US20250340636A1, “ANTIBODIES TARGETING L1CAM AND USES THEREOF” (MEMORIAL SLOAN-KETTERING CANCER CENTER, priority 2023, published 2025) can be followed below.

A short description of the data set: ADC analytical characterization (LC-MS, UV, SEC, HIC, SDS-PAGE, endotoxin). Format: physicochemical. As to conditions: for % Purity (SEC), monomeric: 280 nm; for % Purity (SEC), monomeric / % free reagent related species: SEC; for % free reagent related species: 495 nm; for Average DAR (UV): UV absorbance. The procedure: LC-MS analysis. LC-MS analysis was carried out using a Waters XEVO G2S TOF mass spectrometer and a POROSHELL 300SB C3 column (2.1×12.5 mm, 5 μm) connected to a Waters Acquity H Class UPLC system. The mobile phase was buffer A (0.1% formic acid in water). A gradient (2.5 min 10% B, 10-80% B gradient in 3.5 min) was applied using Buffer B (acetonitrile, 0.1% formic acid) at a flow rate of 0.4 mL/min. The column was maintained at 60° C. throughout the analysis. ADCs were analyzed after dilution to 0.1 mg/mL. 10 μL of ADC solution were injected for analysis. Average DAR was calculated as the weighted average of the observed DAR species based on main glycoforms signal intensity (SI) on the deconvoluted m/z spectra. Average MW was calculated as the weighted average of the observed DAR species main glycoforms MWs on the deconvoluted m/z spectra, as follows:
SEC analysis. Analytical SEC (size exclusion chromatography) was carried out using an ACQUITY UPLC BEH SEC column (4.6 mm×15 cm, 200 A, 1.7 μm) and guard column (4.6 mm×3 cm), connected to a Dionex Ultimate 3000 UPLC system. The mobile phase was 0.2 M potassium phosphate buffer, pH 6.8, 0.2 M potassium chloride, 15% (v/v) isopropanol. The flow rate was kept constant at 0.35 mL/min. The column was maintained at 30° C. throughout the analysis. The analysis was carried out in a 10 min isocratic elution with UV detection at 280 nm and 495 nm. 10 μg of ADC were injected for analysis. The percentage of high molecular weight (HMW) species was calculated by comparing the peak area corresponding to HMW species at 280 nm to total peak area corresponding to HMW and monomeric species at 280 nm. The percentage of free reagent related species was calculated by comparing the peak area corresponding to free reagent related species at 495 nm to total peak area corresponding to HMW and monomeric species at 495 nm.
HIC analysis. Analytical HIC was carried out using a TOSOH Bioscience TSKgel Butyl-NPR column (4.6 mm×3.5 cm, 2.5 μm), connected to a Dionex Ultimate 3000 UPLC system. The mobile phase was buffer A: 1.5 M ammonium sulfate, 50 mM sodium phosphate, pH 7.0. […] The column was maintained at 30° C. throughout the analysis. The analysis was carried with UV detection at 280 nm. 10 μg of ADC were injected per analysis.
SDS-PAGE analysis. SDS-PAGE analysis was carried out using NuPAGE® 4-12% Bis-Tris gels (Invitrogen) under non-reducing conditions with MES buffer. Prior to analysis, each sample was incubated for 1 h at 40° C. in 10% SDS solution. For analysis, 1 μg of ADC sample (based on protein) was loaded onto the gel per lane. Electrophoresis was carried out at 200 V for 35 min. The gels were stained with InstantBlue™ (Expedeon) for protein detection and analyzed using a ChemiDoc™ imaging system (Bio-Rad).
Concentration and average DAR determination by UV absorbance. The concentration and average DAR of the conjugates were determined by UV absorbance at 280 nm (A280) and at a wavelength λ corresponding to a maximum of absorbance for the linker-payload (Aλ) using a Nanodrop 2000 spectrophotometer. Measurements were taken in triplicate and the average values used for calculations. The average DAR was calculated using the following formula: […]
Endotoxin level determination method. The EndoSafe®-PTST™ platform (Charles River) was used to determine the level of endotoxin. EndoSafe®-PTST™ is a chromogenic kinetic test system aligned with USP <85> and Pharm Eur 2.6.14 that provides quantitative Limulus Amebocyte Lysate (LAL) results. The EndoSafe®-PTST™ utilizes LAL reagents in FDA-licensed disposable test cartridges which are pre-loaded with all the reagents required to perform a LAL test. The EndoSafe®-PTST™ mimics licensed LAL kinetic chromogenic methodology by measuring color intensity directly related to the endotoxin concentration in a sample; the concentrations are calculated against an internal standard curve (0.01-1.00 EU/mL) associated with the lot number of the cartridges.

B1: hz143G03 (N61Q) ThioBridge ®-Glu[-Glu(OH)-Val-Cit-PAB-DMEA-PNU159682]-PEG(24) (conjugate)
heavy: QVQLVQSGAEVKKPGSSVKVSCKASGYTFTNYYIHWVRQAPGQGLEWMGKIGPGSGSPYYQGMFKDRVTITADESTSTAYMELSSLRSEDTAVYYCARWLLPFDYWGQGTLVTVSS[human IgG1 constant region not printed]
light: EIVLTQSPGTLSLSPGERATLSCRASSSVNYMHWYQQKPGQAPRLLIYATSILASGIPDRFSGSGSGTDYTLTISRLEPEDFAVYYCQQFSSDPLTFGGGTKVEIKRTVAAPSVFIFPPSDEQLKSGTASVVCLLNNFYPREAKVQWKVDNALQSGNSQESVTEQDSKDSTYSLSSTLTLSKADYEKHKVYACEVTHQGLSSPVTKSFNRGEC
modifications: non-natural residues
Turning to B1, the Endotoxin is 1.5 EU/mg; the “Average DAR (LC-MS)” value is reported as “Average DAR: 4.4”; the “% Purity (SEC), monomeric” value worked out at 96.7% monomeric See FIG. 19H; the “% free reagent related species” value is given as 1.2 See FIG. 19E %. For the same molecule, the “Average DAR (UV)” value is reported as “Average DAR: 3.9”.

B2: h14A10 ThioBridge ®-Glu[-Glu(OH)-Val-Cit-PAB-DMEA-PNU159682]-PEG(24) (conjugate)
heavy: EVQMVESGGGLVQPGGSLRLSCAAPGFIFSSYNMNWVRQAPGKGLEWVSYISSSSSTTYYADSVKGRFTISRDNAKNSLYLQMNSLRDEDTAVYYCASLYSGYDYYYYYGMDVWGQGTTVTVSS[human IgG1 constant region not printed]
light: DIVMTQTPLSSPVSLGQPASISCRSSQSLVHSDGNTYLSWLQQRPGQPPRVLIYKISKRFSGVPDRFSGSGAGTDFTLKISRVEAEDVGVYYCMQATQFPFTFGPGTKVDIKRTVAAPSVFIFPPSDEQLKSGTASVVCLLNNFYPREAKVQWKVDNALQSGNSQESVTEQDSKDSTYSLSSTLTLSKADYEKHKVYACEVTHQGLSSPVTKSFNRGEC
modifications: non-natural residues
With B2, the Endotoxin entry is recorded as “chromatogram 1.1 EU/mg”; the “Average DAR (LC-MS)” value is “Average DAR: 4.1”; the “% Purity (SEC), monomeric” value is 95.4% monomeric; the “% free reagent related species” value is recorded as “chromatogram 2.5%”. Besides, the “Average DAR (UV)” value was “Average DAR: 4.1”.
